Test results from the supplement of paper PMC3334620.
Over roughly 33,000 sequences, “E-score (-0.5 to 0.5)” has its median near -0.036; the highest 2% begin near 0.37. Some of the results follow.

target: T1, Yer064c (UniProt P40041); assay: PBM E-score (8-mer binding enrichment) (E-score (-0.5 to 0.5)); higher = stronger / more preferred TF binding; most listed sequences are background and not binding sites; settings: protein concentration: 200 nM; construct: GST-full length
T1 sequence: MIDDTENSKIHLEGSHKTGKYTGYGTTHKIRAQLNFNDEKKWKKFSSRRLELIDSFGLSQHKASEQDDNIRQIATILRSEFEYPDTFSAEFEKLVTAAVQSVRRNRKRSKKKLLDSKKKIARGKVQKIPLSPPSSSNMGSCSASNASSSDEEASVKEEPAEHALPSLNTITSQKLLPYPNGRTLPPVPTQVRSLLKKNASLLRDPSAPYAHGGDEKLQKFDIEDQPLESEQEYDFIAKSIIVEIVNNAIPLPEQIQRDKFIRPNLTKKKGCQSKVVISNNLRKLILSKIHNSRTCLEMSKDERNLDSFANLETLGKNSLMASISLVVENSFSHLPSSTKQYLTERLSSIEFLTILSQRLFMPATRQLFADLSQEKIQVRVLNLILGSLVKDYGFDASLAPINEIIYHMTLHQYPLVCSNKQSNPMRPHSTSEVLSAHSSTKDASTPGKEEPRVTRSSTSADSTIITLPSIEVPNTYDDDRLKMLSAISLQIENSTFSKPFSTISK
Outline: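 Universal all-10-mer Agilent arrays, fresh or stripped once, were converted to double-stranded form by primer extension. GST-tagged yeast transcription factors from PURExpress in vitro transcription/translation, full-length or DNA-binding domain only, were applied at about 100-200 nM and detected with fluorescent anti-GST. After masliner normalisation, the Universal PBM Analysis Suite scored each ungapped eight-base word together with its reverse complement by E-score.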

Sequence | PBM E-score
AGACATCT | 0.166
AGCATCCT | -0.331
GGAGCGTA | -0.0496
ACAAATAT | -0.0832
AGACAACA | -0.156
TCTCTCAA | 0.138
AAGACACC | 0.0365
ATTAGTCC | 0.373
AAACTAAC | -0.0125
ACTCGTTA | 0.173
CTGGTAAG | 0.0225
ACATATTA | -0.00112
AAGAGGAA | -0.0236
AGGTTTGA | -0.0517
ATGTGTGG | -0.0283
GGCGGTAC | -0.162
GATGCGCA | -0.189
TCAGCGCA | 0.0178
CTAGAATC | 0.229
GCTTGGCC | -0.215
CTTTAAAG | 0.00814
CATGTCAG | 0.00961
CTGTCACC | -0.126
GAAGCCTA | -0.143
AGTGAGCC | 0.215

Sequence | PBM E-score
GATCAAAC | 0.0273
AGTTGACG | 0.129
CATCACTC | 0.0183
TCAGCCCA | 0.0126
CACTAACA | 0.0977
ATCGTCAT | 0.0309
CGTTTCAC | -0.229
ACACGAAC | -0.0269
CCTTCAAC | -0.0733
ACGACTGG | 0.148
CCTGCCTC | -0.25
CCCGTACG | -0.197
CGGGGCAA | -0.178
AGACTATA | 0.35
AATTTCCT | -0.111
CAGGATCC | -0.299
TTAGAGAA | 0.0144
CGCTTGCC | -0.312
CACGGACG | -0.0942
CGACGTCA | -0.00769
CAATTAAA | 0.136
AGTAAACC | -0.0239
ACCGAAGT | 0.062
CGGACACA | -0.0532
GGGAGGAC | -0.176

Sequence | PBM E-score
ATGCCTCC | -0.18
CCCTCAGA | -0.025
GAACCCCC | -0.367
AATAGTCC | 0.241
GATCGGAC | 0.0215
GTTACCCA | 0.188
AGGTGGTC | -0.0833
ATATGCAC | -0.0861
AAGTATCA | -0.0667
ATCGTTGG | 0.047
GCGATAGA | -0.182
ACCTGAGG | -0.0511
AAGATTAC | 0.241
GCTACACC | -0.0406
ACACGCGG | -0.141
ATATAGCA | -0.00055
CAAACCAA | -0.0441
ACATGTAG | 0.00967
GCCTGGAA | 0.0365
CGCTACCC | -0.099
CAACACTG | -0.0078
AGTACAAA | 0.271
CGGCGATA | 0.143
CGTTCAGA | -0.0244
AAACTGCC | 0.11

Sequence | PBM E-score
CGATAACA | -0.226
ATGATGCA | 0.0908
ATTGCATA | -0.0593
CCGCAGAG | -0.0387
AACACGAG | -0.0565
AAGCATGG | -0.179
ACACAAAT | 0.00029
ACTGATAT | 0.0497
AGCTAACC | -0.0695
ATGAGGAG | -0.026
AGAAGCCA | -0.0348
ATCGATGC | -0.198
CCCGTCAC | -0.276
GACGATAA | -0.172
AGCGGCAT | -0.184
CTTAATGA | 0.164
CCGACTAG | 0.0841
AAATTTAT | 0.0633
TTCACCAA | -0.0917
GCATTTCC | -0.0262
GTCCAGGA | -0.0124
GATCTTCC | -0.161
AATCACGG | 0.322
AGTATCAC | -0.09
CCACACGG | -0.161

Sequence | PBM E-score
ATGCGGAA | -0.0206
GTCGTACA | 0.19
CGGCACAG | -0.185
GAGATTTA | 0.00633
AACACTAC | 0.0587
CACTATGC | 0.0417
AGAATCGC | 0.127
CCGCGAAA | 0.13
CAAAGCTA | -0.0479
ACGCCAAA | -0.099
ACTTAATA | 0.229
AGCCGTGC | -0.181
GGATTGAC | 0.19
ATACCGGC | -0.275
CTGTTTAA | 0.154
AATCGCAA | 0.152
TAAGCTAA | 0.063
AGTACGGG | -0.224
CACATCTG | 0.0495
CCTTCGTA | -0.15
CTTTCGGC | -0.0605
GTCGCCAC | 0.044
AAGTAAAC | 0.126
ATGGATAC | 0.117
AAACAAAG | -0.0527

Sequence | PBM E-score
TCTGGTAA | 0.0513
CCACACCA | -0.0216
AGGCACCG | -0.281
GAGAGGCA | -0.22
GTACCGAC | -0.057
AGAACTCT | 0.0393
CGATAGTC | 0.422
CGTGGCAA | -0.305
TCATTTAA | 0.226
ACGAGTGC | -0.227
ACTAAACC | 0.197
TATAACGA | 0.133
ATCGGCTA | -0.049
CCCACCTA | 0.0214
CCGTTGAA | -0.00435
CAGAATCC | -0.0882
CATATAGC | -0.00988
ATGGTTAC | 0.264
CGCCACCA | -0.222
GCGTAACC | -0.127
ACAGTAAA | 0.114
AAGGGCAG | -0.169
CGACTTAC | 0.256
GGATTGGA | -0.195
GGCAATTA | -0.0137

Sequence | PBM E-score
GAGTGACC | 0.0962
CTGCAGGA | 0.121
CATACACG | 0.0241
GTAAGCGA | 0.0159
CCATAAAC | -0.00848
AGGCGGTA | -0.162
CGAGCTCA | -0.0703
CAGGTAAG | -0.0153
AATAGCGT | -0.137
TCCGAGAA | -0.0812
GAATGACA | -0.232
GGTCCCAC | -0.179
GGGTGGCA | -0.154
CCAGGCGG | -0.0976
CGACCCGA | -0.243
AAGAATGT | -0.0525
AGACGCGC | -0.149
AGGTCGAA | -0.0147
CAGCGAAA | -0.0475
CTAATCAA | 0.264
CGTCTAAC | 0.00543
AGGACGCC | -0.233
